Data on 52 compounds can be found in PubChem BioAssay AID651567 (National Center for Advancing Translational Sciences (NCATS), 2012).

The structures appear in SMILES notation. About 10 (0.8%) of roughly 1,200 compounds were called active. Not shown: some 4% with an inconclusive outcome. The call rests on the fitted dose curve; in most records, active means well fitted inhibition curve with a large enough effect; inconclusive means small, poorly fitted or top-dose-only effect; inactive means no such curve, though single readings can be large or run the other way. The list shows a part of the results.
On the % scale 0 is the no-effect control and ±100 the full control effect.

The nature of the experiment: qHTS Assay to Find Inhibitors of Chronic Active B-Cell Receptor Signaling: Hit Validation in OCI-Ly3 Assay. To be noted: OCI-Ly3 IkB-luciferase reporter, Chroma-Glo luminescence, 4 h; series mostly up to 46.1 µM; activity change, negative = inhibition: at the top concentration. The procedure, abridged: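 Readout is dual-colour luminescence: IkB-alpha-luciferase fusion (green) against unfused luciferase (red), plus their ratio, scaled between basal cells and 10 uM MG-132. OCI-Ly3 cells, 0.5% FBS IMDM, compound with doxycycline (80ng/ml solution), 4 hrs at 37C; curves fitted and classed.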
Consider `O=C(Nc1ccc([N+](=O)[O-])cc1)Nc1ccon1`, for which the “activity change, negative = inhibition” value is inactive: -2.62%. On to `CC(C)(C)NC(=S)N/N=C/c1cccnc1`, for which the “activity change, negative = inhibition” value is inactive: -0.0928%. Turning to `COc1cc(C(c2sc3nc(C)nn3c2O)N2CCN(c3ccccc3)CC2)cc(OC)c1OC` (configuration not stated), the “activity change, negative = inhibition” value is inactive: -0.839%. With `COc1ccc(Nc2cc3n(c(=O)n2)CCc2cc(OC)c(OC)cc2-3)c(C)c1` the figure was inactive: -1.29%; with `COc1cc(C(=O)Nc2ccc(C)cc2)c2ccccc2n1`, inactive: -1.4%. Take `CCOC(=O)c1ccccc1NS(=O)(=O)c1ccc(OCC)cc1`: the “activity change, negative = inhibition” value is inactive: -2%.

Take `CCCN1C(=O)C(=O)c2cc(Cl)ccc21`: the “activity change, negative = inhibition” value is inactive: -8.1%. For the compound `COc1ccc(C)cc1NC(=O)CNC(c1ccccc1)c1ccc(C)cc1` (configuration not stated), the “activity change, negative = inhibition” value was inactive: -3.67%.

Consider `CCN(c1ccccc1)S(=O)(=O)c1ccc(C(=O)NC2CCN(Cc3ccccc3)CC2)cc1`, for which the “activity change, negative = inhibition” value is inactive: -2.07%.

Turning to `CC1=CC(C)(C)N(S(=O)(=O)c2ccc(C)cc2)c2cc(C)ccc21`, the “activity change, negative = inhibition” value is inactive: -2.26%. On to `O=C1NC(=O)C(=C2CCCCCC2)S1`, for which the “activity change, negative = inhibition” value was inactive: 0.0471%. Next, `O=C(N/N=C/c1ccc([N+](=O)[O-])o1)c1cc(-c2ccc(-c3ccccc3)cc2)nc2ccccc12`: inactive: -0.34%. Next, `CCOc1ccc2c(c1)C(C)=CC(C)(C)N2S(=O)(=O)c1ccc(C)cc1`: inactive: -2.31%.

With `CCOC(=O)CSc1nc(C)c2cccc(C)c2n1`, the “activity change, negative = inhibition” value was inactive: 0.225%. `COc1cc(OC)c2c(-c3cccc(-c4cccc(N)c4)c3)cc(=O)oc2c1`: the “activity change, negative = inhibition” value is inactive: -12.3%. On to `COc1cc2c(c(OC)c1OC)C(c1ccc(C)cc1)CC(=O)O2` (configuration not stated), for which the “activity change, negative = inhibition” value was inactive: -3.11%. For the compound `COc1ccc(-c2sc3cc(OC)c(OC)cc3c2C#CC(C)(C)O)cc1`, the “activity change, negative = inhibition” value is inactive: -1.02%. Next, `CSc1ccc(COC(=O)c2cc([N+](=O)[O-])ccc2N2CCOCC2)cc1`: inactive: -2%; `CCCC(=O)O[C@]1(C(=O)CO)CC[C@H]2[C@@H]3CCC4=CC(=O)CC[C@]4(C)[C@H]3[C@@H](O)C[C@@]21C`: inactive: -1.65%; `COc1ccc(-c2nn(-c3ccccc3)cc2/C=C/C(=O)O)cc1[N+](=O)[O-]`: inactive: 0.307%. Next, `CCOc1ncccc1C(=O)N1CCN(c2cccc(C)c2C)CC1`: inactive: -3.74%; `O=C1NC(=Nc2ccc(O)cc2)S/C1=C\C=C\c1ccco1`: inactive: -4.14%.

Turning to `CCOC(=O)C(NC(=O)N(C)C)(Nc1sc(C)c(CC)c1C#N)C(F)(F)F` (configuration not stated), the “activity change, negative = inhibition” value was inactive: -1.3%. Next, `NCCNC(=O)Cc1ccc(NC(=O)Cc2ccc(Nc3ncnc4c3ncn4[C@@H]3O[C@H](CO)[C@@H](O)[C@H]3O)cc2)cc1`: inactive: -0.207%; `CCOc1cc(Br)c(C=O)cc1OCC`: inactive: -4.55%. Next, `COc1cc(C(=O)N2CCN(c3cc(Cl)ccc3Cl)CC2)cc(OC)c1OC`: inactive: -4.65%. Next, `Cc1cc(=O)[nH]c2ccc(S(=O)(=O)Nc3ccc(O)cc3)cc12`: inactive: -0.264%. `COc1ccc(N(C(=O)c2ccccc2C)S(=O)(=O)c2cccs2)cc1`: the “activity change, negative = inhibition” value was inactive: -2.69%. In the case of `Cc1cccc(C)c1OCC(=O)N/N=C/C=C/c1ccco1`, the “activity change, negative = inhibition” value is inactive: -0.431%. With `COc1cccc2sc(Nc3nnc(-c4ccccc4Cl)o3)nc12` the figure was inactive: 16%; with `CCCCNC(=S)NNC(=O)CCn1nc(C)c(Br)c1C`, inactive: -1.2%; with `COc1ccccc1C1=NOC(COc2ccc3c(C)cc(=O)oc3c2)C1` (configuration not stated), inactive: -3.45%. In the case of `COc1ccc(S(=O)(=O)N2CCOCC2)cc1NC(=O)/C=C/c1ccc(F)cc1`, the “activity change, negative = inhibition” value was inactive: -0.49%. With `COc1ccc(Nc2nc(-c3c(C)nc4ncccn34)cs2)cc1` the figure was inactive: -6.49%; with `O=C(NC(=S)NC1CCSC1=O)c1cccs1` (configuration not stated), inactive: -1.27%. Take `CCO[C@H]1OC(C(=O)NCc2nc3ccccc3[nH]2)=C[C@@H](C2CC2)[C@@H]1CCCO`: the “activity change, negative = inhibition” value is inactive: -0.732%.

With `O=C(Nc1ncc(Cc2ccc(SC(F)F)cc2)s1)c1ccc(OC(F)F)cc1`, the “activity change, negative = inhibition” value is inactive: 0.809%. As to `COc1ccc(CN(C)C(=O)Cn2cnc3c(NCc4ccccc4)ncnc32)cc1OC`, the “activity change, negative = inhibition” value is inactive: -0.481%. As to `NC(=S)N=Nc1c(O)n(Cc2ccc(F)cc2)c2ccccc12`, the “activity change, negative = inhibition” value is inactive: -12.9%. With `COc1ccc(-c2nnc(SCC(=O)NCc3ccccc3)nc2-c2ccc(OC)c(OC)c2)cc1OC` the figure was inactive: -2.42%; with `COc1ccc(CCNC(=O)C(=O)c2c(C)n(C)c3ccccc23)cc1OC`, inactive: -0.335%; with `Cc1ccc(/C(C#N)=C\c2ccc(N3CCOCC3)o2)cc1`, inactive: -6.61%.

For `Cc1ccccc1NCC(=O)c1ccc(Br)cc1`, the “activity change, negative = inhibition” value is inactive: -0.332%.

Take `CCOc1cc(C(=O)N/N=C(\C)Cc2ccc(OC)cc2)cc(OCC)c1OCC`: the “activity change, negative = inhibition” value is inactive: -0.984%. Next, `Cc1cccc(-n2c3nc(=O)[nH]c(=O)c-3cc3cc([N+](=O)[O-])ccc32)c1`: inactive: -5.22%; `O=C(NC(=S)N1CCOCC1)c1cn(-c2ccccc2)nc1-c1ccccc1`: inactive: -2.27%. With `COc1ccc(-c2csc(C3=C(O)CN(CCCN4CCCC4=O)C3=N)n2)cc1OC` the figure was inactive: -0.974%; with `COc1cc(OC)cc(C(=O)NCc2ccc3c(c2)CCN3C(=O)c2ccccc2)c1`, inactive: -1.1%.

As to `O=C(CSc1cccc[n+]1[O-])c1ccc(Cl)s1`, the “activity change, negative = inhibition” value is inactive: -0.515%. Next, `O=C(/C=C/c1ccco1)NC(=S)Nc1cccc(-c2nc3ccccc3o2)c1`: inactive: -3.6%; `COc1ccc(NC(=S)N/N=C/c2ccc(F)c(F)c2)cc1`: inactive: -0.784%. Next, `Cc1ccc(NC(=S)NNC(=S)Nc2ccc(C)cc2C)cc1`: inactive: -5.8%.
